# Measurements from article PMC4336329 (PLoS ONE, 2015).
# In all, about 310,000 compounds went through this assay and about 2,200 (0.71%) showed an effect of 50% or more. The effect is printed as a negative number. The list shows a part of the results.
# Biological target: human ether-à-go-go-related gene (hERG) potassium channel (human, UniProt Q12809)
# Assay: primary screen, population patch clamp on CHO cells stably expressing hERG
# Chain of human ether-à-go-go-related gene (hERG) potassium channel (Q12809 whole entry, looked up): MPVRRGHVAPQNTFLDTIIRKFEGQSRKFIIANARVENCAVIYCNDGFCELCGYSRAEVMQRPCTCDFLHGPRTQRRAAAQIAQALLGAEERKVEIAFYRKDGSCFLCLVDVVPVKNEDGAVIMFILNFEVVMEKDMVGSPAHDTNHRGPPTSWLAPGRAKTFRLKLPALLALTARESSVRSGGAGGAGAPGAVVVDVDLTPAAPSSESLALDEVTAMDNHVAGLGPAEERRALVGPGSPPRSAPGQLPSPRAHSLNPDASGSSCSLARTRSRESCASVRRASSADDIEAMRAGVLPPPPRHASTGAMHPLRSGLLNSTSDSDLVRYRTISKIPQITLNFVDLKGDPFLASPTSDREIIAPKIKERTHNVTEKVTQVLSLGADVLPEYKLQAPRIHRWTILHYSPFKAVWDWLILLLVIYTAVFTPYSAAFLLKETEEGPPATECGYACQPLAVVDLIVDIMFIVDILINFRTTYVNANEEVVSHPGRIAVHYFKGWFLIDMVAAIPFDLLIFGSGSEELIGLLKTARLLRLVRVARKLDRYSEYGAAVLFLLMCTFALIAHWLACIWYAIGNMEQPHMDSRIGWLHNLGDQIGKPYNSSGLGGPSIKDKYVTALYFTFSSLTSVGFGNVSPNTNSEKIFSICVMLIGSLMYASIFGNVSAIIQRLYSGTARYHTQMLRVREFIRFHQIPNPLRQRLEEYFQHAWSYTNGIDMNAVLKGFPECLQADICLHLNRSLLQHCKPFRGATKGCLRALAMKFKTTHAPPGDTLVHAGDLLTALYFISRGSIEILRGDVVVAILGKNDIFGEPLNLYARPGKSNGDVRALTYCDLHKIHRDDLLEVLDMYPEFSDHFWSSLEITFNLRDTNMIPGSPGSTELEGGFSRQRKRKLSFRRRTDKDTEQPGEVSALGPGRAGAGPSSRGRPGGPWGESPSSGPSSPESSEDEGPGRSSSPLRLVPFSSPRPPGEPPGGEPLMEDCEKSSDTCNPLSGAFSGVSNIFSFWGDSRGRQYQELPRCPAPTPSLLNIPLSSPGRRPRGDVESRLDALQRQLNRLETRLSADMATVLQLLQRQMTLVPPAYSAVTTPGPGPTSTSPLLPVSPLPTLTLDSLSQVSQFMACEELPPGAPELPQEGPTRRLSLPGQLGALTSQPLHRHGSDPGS
row,SMILES,"hERG current change (%, negative = inhibition) at 1uM"
1,O=C(COC(=O)/C=C/c1cn(-c2ccccc2)nc1-c1ccc2c(c1)OCCO2)NC1CCS(=O)(=O)C1 (stereo not drawn),4.5%
2,COc1ccc(N2C(=O)C(CC(=O)O)S/C2=C\C(C)=O)cc1 (stereo not drawn),15.6%
3,Cn1c(CCc2ccccc2)nnc1SCC(=O)N1CCOCC1,-4.47%
4,O=C(COc1ccc(/C=N/NC(=O)c2ccccc2)cc1)Nc1ccc([N+](=O)[O-])cc1,16.2%
5,CN(CC(=O)Nc1ccc(N2CCOCC2)cc1)C(=O)Cc1ccccc1,7.9%
6,COCCCn1c2nc3ccccc3nc2c2c(=O)n(Cc3ccccc3Cl)cnc21,16.4%
7,CCOC(=O)c1ccc(NC(=O)N2CCN(C(=O)C3CCCO3)CC2)cc1 (stereo not drawn),3.45%
8,COc1ccc(S(=O)(=O)N2C3CCC2CC(NC(=O)C2CC2)C3)cc1 (stereo not drawn),23.5%
9,CCOc1ccccc1/C=C/c1onc(C)c1S(=O)(=O)N1CCC(C(=O)N2CCCCCC2)CC1,6.97%
10,O=C(CC(=O)Nc1ccc(Cl)c(Cl)c1)N/N=C/c1ccc(O)cc1,4.9%
11,Cn1cc(/C=N/n2cnc3scc(-c4ccc(Cl)cc4)c3c2=O)c2ccccc21,7.93%
12,NS(=O)(=O)c1ccc(CCNC(=O)c2cccc(S(=O)(=O)N3CCCC3)c2)cc1,-5.92%
13,CC(C)Cn1c(-c2cccs2)nc2nc3ccccc3nc21,7.53%
14,O=C(O)C1CCCN1S(=O)(=O)c1ccc(Cl)c(Cl)c1 (stereo not drawn),7.47%
15,Cl.O=C(c1cccc(S(=O)(=O)N2CCCC2)c1)N1CCN(Cc2ccccc2)CC1,-3.03%
16,Cc1cccc(C(=O)N=c2sccn2C)c1[N+](=O)[O-],5.88%
17,O=C(c1ccoc1)N1CCC2(CC1)Oc1ccc(Cl)cc1C(=O)C21CC(c2cccnc2)=NO1 (stereo not drawn),4.16%
18,COc1cc(/C=N/NC(=O)c2cc(-c3cccs3)nc3ccccc23)ccc1O,6.05%
19,Cc1cc(C(=O)N/N=C/c2sccc2C)no1,16.9%
20,COc1ccc(C(CC(=O)NCc2ccccc2)C(C)C)cc1 (stereo not drawn),10.4%
21,O=C1/C(=C/c2cccnc2)CCC/C1=C\c1cccnc1,7.03%
22,CCN(CC)C(=O)CN1CCC(n2c(C)nc3cc(C(F)(F)F)ccc32)CC1,-2.16%
23,Cc1cc(=O)oc2cc(OCC(=O)OCC(=O)N3CCC(C)CC3)ccc12,13.5%

row,SMILES,"hERG current change (%, negative = inhibition) at 1uM"
1,CN(C)S(=O)(=O)c1ccc(Nc2ccc(-c3ccc4c(c3)OCCO4)nn2)cc1,4.91%
2,O=C(N/C(=C\c1ccc([N+](=O)[O-])cc1)C(=O)N1CCCCC1)c1ccccc1Br,-1.92%
3,Cc1ccc(C(=O)CCC(=O)NN2C(=O)NC3(CCCCC3)C2=O)cc1,17.3%
4,COc1coc(/C=C/C(=O)O)cc1=O,-0.733%
5,Cc1ccc2c(c1)N(CC(=O)N1CCCC(C)C1)C(=O)CO2 (stereo not drawn),13.4%
6,CC1(C)OC(=O)C(=CNc2ccccc2F)C(=O)O1,1.48%
7,Cc1ccc(OCc2nc3c4c(ncn3n2)-c2ccccc2CC42CCCC2)cc1,11.9%
8,O=C(CNC(=O)c1ccncc1)Nc1ccc(F)c(F)c1,-6.33%
9,COc1ccccc1NC(=O)C(C)OC(=O)CCCOc1ccccc1 (stereo not drawn),7.07%
10,Cc1ccccc1C(=O)OC1OC(=O)C(Cl)=C1N1CCOCC1 (stereo not drawn),6.26%
11,CCCOc1ccc(CCC(=O)N/N=C/c2ccco2)cc1,9.95%
12,O=C(COC(=O)/C=C/c1ccc(Cl)cc1)Nc1ccc2c(c1)OCCO2,5.94%
13,C=CCNC(=S)N/N=C(\C)c1cc(OC)c(OC)c(OC)c1,5.67%
14,O=C(CC1SC(=Nc2ccccc2)N(Cc2ccccn2)C1=O)Nc1ccc(Br)cc1 (stereo not drawn),18.7%
15,Cc1ccccc1NC(=O)Cc1ccccc1,15.3%
16,CCC(=O)c1cc(F)c(N2CCN(C(=O)c3ccco3)CC2)cc1C,5.47%
17,Cc1ccc(NC(=S)N2CCN(S(=O)(=O)c3ccccc3)CC2)cc1C,13.5%
18,CC(O)[C@H]1CN=C(N)N1CCc1cc(C(F)(F)F)cc(C(F)(F)F)c1 (stereo partly drawn),15.3%
19,COc1cccc(/C=C/C2=CC(C)(C)NC(=S)N2)c1,16.5%
20,O=S(=O)(c1ccc(N2CCN(CCO)CC2)nc1)N1CCCCC1,8.73%
21,Cc1nnc(SCCn2c(N3CCN(C)CC3)nc3c2c(=O)n(C)c(=O)n3C)s1,6.36%
22,Cc1nnc(NC(=O)Cc2cccs2)s1,1.69%
